Here are results for 38 molecules from the supplement of paper PMC8007513.

This experiment deals with Trichoderma virens ATCC 9645. Kind of experiment: growth yield (OD600) with compound + IPBC relative to untreated control; higher = less growth inhibition. To be noted: compound concentration: 100 uM, IPBC concentration: 200 ng/ml. In a few lines:
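Plates were read for OD600 at 40 h and 72 h after Trichoderma virens ATCC 9645 spores (15,000 spores ml^−1 in potato dextrose broth) were grown at 30 °C with library compounds at 100 μM final, with or without a biocide at 200 ng ml^−1. Growth is stated relative to the control with neither agent, as the mean of duplicate screens.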

Structures can show the parent of a compound that is named as a salt. ± gives the standard error. Hit rate of the full screen: of about 1,300 compounds, about 130 (10%) showed an effect of 50% or more. Only a part is listed here, and it is no random draw.

Take `COc1cnc(NS(=O)(=O)c2ccc(N)cc2)nc1` [Sulfameter] + CCCCNC(=O)OCC#CI [3-iodo-2-propynyl butylcarbamate (IPBC)]: the growth yield runs as follows: (40 h) 101 ± 7.5%; (72 h) 101 ± 3.5%. Consider `Cc1cccc(CN2CCN(C(c3ccccc3)c3ccc(Cl)cc3)CC2)c1` (stereo not given) [Meclozine dihydrochloride] + CCCCNC(=O)OCC#CI [3-iodo-2-propynyl butylcarbamate (IPBC)], for which the growth yield (40 h) is 3.02 ± 1.1% and the growth yield (72 h) worked out at 3.78 ± 0.63%. `CNCCC(Oc1ccccc1OC)c1ccccc1` (stereo not given) [Nisoxetine hydrochloride] + CCCCNC(=O)OCC#CI [3-iodo-2-propynyl butylcarbamate (IPBC)]: the growth yield is, setting by setting: (40 h) 88.5 ± 1.8%; (72 h) 93.86 ± 0.52%. On to `CCCCC(C)(O)C/C=C/[C@H]1[C@H](O)CC(=O)[C@@H]1CCCCCCC(=O)OC` (mixture of isomers) [Misoprostol] + CCCCNC(=O)OCC#CI [3-iodo-2-propynyl butylcarbamate (IPBC)], for which the growth yield is 94.7 ± 3.5% (40 h) and 102 ± 2.8% (72 h). In the same order, the values of `CC(=O)N(CC(C)C(=O)O)c1c(I)cc(I)c(N)c1I` (stereo not given) [Iocetamic acid] + CCCCNC(=O)OCC#CI [3-iodo-2-propynyl butylcarbamate (IPBC)] are 107 ± 18% and 102 ± 11%. For `COc1cc(C(=O)NC2CCCNC2)cc(OC)c1OC` (stereo not given) [Troxipide] + CCCCNC(=O)OCC#CI [3-iodo-2-propynyl butylcarbamate (IPBC)], in that order: 116 ± 3.8% and 106.03 ± 0.1%. In the same order, the values of `C[C@]12CC[C@@H]3c4ccc(O)cc4CC[C@H]3[C@@H]1CCC2=O` [Estrone] + CCCCNC(=O)OCC#CI [3-iodo-2-propynyl butylcarbamate (IPBC)] are 73.9 ± 2.1% and 81.6 ± 0.84%. Take `CN1CC2c3ccccc3Oc3ccc(Cl)cc3C2C1` (stereo not given) [Asenapine maleate] + CCCCNC(=O)OCC#CI [3-iodo-2-propynyl butylcarbamate (IPBC)]: the growth yield is 71 ± 2.7% (40 h) and 88.5 ± 2.1% (72 h). For `c1ccc2[nH]c(-c3cscn3)nc2c1` [Tiabendazole] + CCCCNC(=O)OCC#CI [3-iodo-2-propynyl butylcarbamate (IPBC)], in that order: 4.7652 ± 1.4e-15% and 3.3561 ± 1.3e-15%. For `CCCCCCCN(CC)CCCC(O)c1ccc(NS(C)(=O)=O)cc1` (stereo not given) [Ibutilide fumarate] + CCCCNC(=O)OCC#CI [3-iodo-2-propynyl butylcarbamate (IPBC)], in that order: 85 ± 1.4% and 88.1 ± 0.63%. For `COc1ccc(-c2cc(=O)c3c(O)cc(O[C@@H]4O[C@H](CO[C@@H]5O[C@@H](C)[C@H](O)[C@@H](O)[C@H]5O)[C@@H](O)[C@H](O)[C@H]4O)cc3o2)cc1O` [Diosmin] + CCCCNC(=O)OCC#CI [3-iodo-2-propynyl butylcarbamate (IPBC)], in that order: 86.09 ± 0.64% and 92.08 ± 0.21%. In the case of `CC(=O)[C@H]1CC[C@H]2[C@@H]3CC[C@H]4C[C@H](O)CC[C@]4(C)[C@H]3C(=O)C[C@]12C` [Alfaxalone] + CCCCNC(=O)OCC#CI [3-iodo-2-propynyl butylcarbamate (IPBC)], the growth yield was 79.4 ± 8.3% (40 h) and 90.1 ± 4.9% (72 h).

In the case of `CCn1cc(C(=O)O)c(=O)c2cnc(N3CCCC3)nc21` [Piromidic acid] + CCCCNC(=O)OCC#CI [3-iodo-2-propynyl butylcarbamate (IPBC)], the growth yield runs as follows: (40 h) 99.9 ± 14%; (72 h) 99.5 ± 5.3%. Turning to `O=S(=O)(O)CCS` [Mesna] + CCCCNC(=O)OCC#CI [3-iodo-2-propynyl butylcarbamate (IPBC)], the growth yield came out at 99.12 ± 0.64% (40 h) and 95.1 ± 1.4% (72 h). On to `CCCCNC(=O)NS(=O)(=O)c1ccc(C)cc1` [Tolbutamide] + CCCCNC(=O)OCC#CI [3-iodo-2-propynyl butylcarbamate (IPBC)], for which the growth yield (40 h) was found to be 87.4% and the growth yield (72 h) was 98.58 ± 0.21%.

Consider `CCOC(=O)OC(C)OC1=C(C(=O)Nc2ccccn2)N(C)S(=O)(=O)c2ccccc21` (stereo not given) [Ampiroxicam] + CCCCNC(=O)OCC#CI [3-iodo-2-propynyl butylcarbamate (IPBC)], for which the growth yield was found to be 85.3 ± 3% (40 h) and 91.5 ± 1.9% (72 h).

For the molecule `CC(=O)[C@H]1CC[C@H]2[C@@H]3C[C@H](C)C4=CC(=O)CC[C@]4(C)[C@H]3[C@@H](O)C[C@]12C` [Medrysone] + CCCCNC(=O)OCC#CI [3-iodo-2-propynyl butylcarbamate (IPBC)], the growth yield turned out to be 74.8 ± 3% (40 h) and 86.3 ± 1.8% (72 h).

With `OCc1cc(C(O)CNCCCCCCOCCCCc2ccccc2)ccc1O` (stereo not given) [Salmeterol] + CCCCNC(=O)OCC#CI [3-iodo-2-propynyl butylcarbamate (IPBC)], the growth yield (40 h) amounted to 34.9 ± 1.6%. As for `CC(=O)OCC(=O)[C@@]12N=C(C)O[C@@H]1C[C@H]1[C@@H]3CCC4=CC(=O)C=C[C@]4(C)[C@H]3[C@@H](O)C[C@@]12C` [Deflazacort] + CCCCNC(=O)OCC#CI [3-iodo-2-propynyl butylcarbamate (IPBC)], the growth yield stood at 100 ± 15% (40 h) and 99.8 ± 10% (72 h). In the same order, the values of `O=C(O)Cc1sc(-c2ccccc2)nc1-c1ccc(Cl)cc1` [Fentiazac] + CCCCNC(=O)OCC#CI [3-iodo-2-propynyl butylcarbamate (IPBC)] are 25.4% and 77.1 ± 16%. Turning to `Cc1nc2n(c(=O)c1CCN1CCC(c3noc4cc(F)ccc34)CC1)CCCC2` [Risperidone] + CCCCNC(=O)OCC#CI [3-iodo-2-propynyl butylcarbamate (IPBC)], the growth yield (40 h) was 104 ± 12% and the growth yield (72 h) stood at 101 ± 10%. Take `CC(=O)Nc1ccc(CC(=O)O)cc1` [Actarit] + CCCCNC(=O)OCC#CI [3-iodo-2-propynyl butylcarbamate (IPBC)]: the growth yield amounted to 93.4 ± 1.6% (40 h) and 92.2 ± 2.2% (72 h). For `CCS(=O)(=O)CCn1c([N+](=O)[O-])cnc1C` [Tinidazole] + CCCCNC(=O)OCC#CI [3-iodo-2-propynyl butylcarbamate (IPBC)], in that order: 87.52 ± 0.16% and 89.1 ± 1.3%.

On to `O=C1CCc2cc(OCCCCc3nnnn3C3CCCCC3)ccc2N1` [Cilostazol] + CCCCNC(=O)OCC#CI [3-iodo-2-propynyl butylcarbamate (IPBC)], for which the growth yield is 81.6 ± 3.2% (40 h) and 91.9 ± 2.7% (72 h). For the molecule `C[C@]12C/C(=C/O)C(=O)C[C@@H]1CC[C@@H]1[C@@H]2CC[C@@]2(C)[C@H]1CC[C@]2(C)O` [Oxymetholone] + CCCCNC(=O)OCC#CI [3-iodo-2-propynyl butylcarbamate (IPBC)], the growth yield was determined as 112 ± 14% (40 h) and 105 ± 9.2% (72 h). With `CCC1=C(C)CN(C(=O)NCCc2ccc(S(=O)(=O)NC(=O)N[C@H]3CC[C@H](C)CC3)cc2)C1=O` [Glimepiride] + CCCCNC(=O)OCC#CI [3-iodo-2-propynyl butylcarbamate (IPBC)], the growth yield worked out at 100 ± 8.1% (40 h) and 95.8 ± 6% (72 h). In the same order, the values of `CC1(C)NC(=O)N(c2ccc([N+](=O)[O-])c(C(F)(F)F)c2)C1=O` [Nilutamide] + CCCCNC(=O)OCC#CI [3-iodo-2-propynyl butylcarbamate (IPBC)] are 84.98 ± 0.16% and 88.8 ± 1.4%.

As to `CCCCC(CC)CNC(=N)NC(=N)NCCCCCCNC(=N)NC(=N)NCC(CC)CCCC` (stereo not given) [Alexidine dihydrochloride] + CCCCNC(=O)OCC#CI [3-iodo-2-propynyl butylcarbamate (IPBC)], the growth yield (40 h) worked out at 2.5415 ± 3.6e-15% and the growth yield (72 h) amounted to 2.94 ± 0.21%. Turning to `COC(=O)[C@@H]1[C@H]2C[C@H]3c4[nH]c5ccccc5c4CCN3C[C@@H]2CC[C@@H]1O` [Yohimbine hydrochloride] + CCCCNC(=O)OCC#CI [3-iodo-2-propynyl butylcarbamate (IPBC)], the growth yield runs as follows: (40 h) 82.4 ± 1.1%; (72 h) 89.25 ± 0.73%. As to `COc1ccc2cc([C@@H](C)C(=O)O)ccc2c1` [(R) -Naproxen sodium salt] + CCCCNC(=O)OCC#CI [3-iodo-2-propynyl butylcarbamate (IPBC)], the growth yield reads like this: (40 h) 67.7 ± 2.2%; (72 h) 81.5 ± 3.5%. For `Nc1nc(=O)c2c([nH]1)NC[C@@H](CNc1ccc(C(=O)N[C@@H](CCC(=O)O)C(=O)O)cc1)N2C=O` [Folinic acid calcium salt] + CCCCNC(=O)OCC#CI [3-iodo-2-propynyl butylcarbamate (IPBC)], in that order: 115 ± 3.3% and 101 ± 2.8%.

Consider `CC(C)CN(C[C@@H](O)[C@H](Cc1ccccc1)NC(=O)O[C@H]1CO[C@H]2OCC[C@H]21)S(=O)(=O)c1ccc(N)cc1` [Darunavir] + CCCCNC(=O)OCC#CI [3-iodo-2-propynyl butylcarbamate (IPBC)], for which the growth yield (40 h) came to 110 ± 9.7% and the growth yield (72 h) was determined as 113 ± 6.4%. In the case of `CNC(=O)Oc1ccc2c(c1)[C@]1(C)CCN(C)[C@@H]1N2C` [Eserine hemisulfate salt] + CCCCNC(=O)OCC#CI [3-iodo-2-propynyl butylcarbamate (IPBC)], the growth yield was 85.9 ± 2.4% (40 h) and 89.9 ± 2.2% (72 h).

On to `O=C1c2cccc3c2[C@H](CCC3)CN1[C@@H]1CN2CCC1CC2` [Palonosetron hydrochloride] + CCCCNC(=O)OCC#CI [3-iodo-2-propynyl butylcarbamate (IPBC)], for which the growth yield runs as follows: (40 h) 94.5 ± 3.6%; (72 h) 94.39 ± 0.84%. In the same order, the values of `NCC[C@H](O)C(=O)N[C@@H]1C[C@H](N)[C@@H](O[C@H]2O[C@H](CN)[C@@H](O)[C@H](O)[C@H]2O)[C@H](O)[C@H]1O[C@H]1O[C@H](CO)[C@@H](O)[C@H](N)[C@H]1O` [Amikacin hydrate] + CCCCNC(=O)OCC#CI [3-iodo-2-propynyl butylcarbamate (IPBC)] are 54.3 ± 3.5% and 85 ± 1.1%.

Take `O=c1[nH]cnc2c1ncn2[C@H]1CC[C@@H](CO)O1` [Didanosine] + CCCCNC(=O)OCC#CI [3-iodo-2-propynyl butylcarbamate (IPBC)]: the growth yield (40 h) amounted to 56.5 ± 8.9% and the growth yield (72 h) turned out to be 57.6 ± 4.3%. In the same order, the values of `CN(C/C=C/C#CC(C)(C)C)Cc1cccc2ccccc12` [Terbinafine] + CCCCNC(=O)OCC#CI [3-iodo-2-propynyl butylcarbamate (IPBC)] are 3.18 ± 0.64% and 2.94 ± 0.42%.

Take `Fc1ccc([C@@H]2CCNC[C@H]2COc2ccc3c(c2)OCO3)cc1` [Paroxetine Hydrochloride] + CCCCNC(=O)OCC#CI [3-iodo-2-propynyl butylcarbamate (IPBC)]: the growth yield is, setting by setting: (40 h) 68 ± 4.8%; (72 h) 92.5 ± 2.5%.
